Laboratory results as given in PubChem BioAssay AID504832 (National Center for Advancing Translational Sciences (NCATS), 2011).
In all, about 310,000 compounds went through this assay and about 18,000 (5.8%) were called active. The shares of active, inactive and inconclusive entries below differ from those in the screen. Calls follow the shape of the dose curve; as a rule, active = well fitted inhibition curve with a large enough effect; inconclusive = small, poorly fitted or top-dose-only effect, or another doubt; inactive = no such curve, though single readings can be large or run the other way. No potency is given beside an inconclusive call; the fits are too rough.
% is scaled to controls: 0 for no effect and ±100 for the full control effect; potency is read from the fitted curve at half-maximal effect; tags tell the direction and shape of the fitted curve.

Experiment: Primary qHTS for delayed death inhibitors of the malarial parasite plastid, 48 hour incubation
Conditions: P. falciparum luciferase growth in erythrocytes; series mostly up to 28.7 µM; activity change, negative = inhibition: at the top concentration
Method in brief: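 Cell-based growth assay: transgenic P. falciparum expressing firefly luciferase, cultured in red cells within RPMI 1640 containing 0.5% w/v Albumax, 24 mM bicarbonate and gentamycin. A drop in luciferase activity indicates inhibition.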
For Cc1ccc(C2(c3ccccc3)NC(=O)N(CC(=O)NC3(C#N)CCCC3)C2=O)cc1C (centres undefined), the Potency was active: 13.1 µM.
With Cn1c(CCC(N)=O)nnc1SCC(=O)Nc1ccccc1C(=O)NC1CC1 the “activity change, negative = inhibition” value was inactive: 1.94%.
With CCNc1nc(NCC)nc(N/N=C/c2cc(OC)c(OC)c(OC)c2)n1 the Potency was inconclusive [inhibitor, single point].
For Cc1[nH]c2ccccc2c1SCc1nnc(SCc2ccc(Cl)cc2)n1C, the Potency was active: 14.7 µM.
With O=C(Cn1ccc2cc(S(=O)(=O)N3CCCC3)ccc21)NCCc1ccccc1 the Potency was inconclusive [inhibitor, single point].
With O=C(OCC(=O)N1CCN(C(=O)c2ccco2)CC1)c1cc(-c2cccc(Br)c2)nc2ccccc12 the “activity change, negative = inhibition” value was inactive: 6.92%.
With O=C(Nc1cc(Cl)cc(Cl)c1)C1CC(=O)N(C2CCCC2)C1 (centres undefined) the “activity change, negative = inhibition” value was inactive: 9.8%.
With Cc1ccc(NC(=O)CSc2nnc(CNC(=O)c3ccco3)o2)cc1 the “activity change, negative = inhibition” value was inactive: 46.4%.
In the case of COc1cccc(NS(=O)(=O)c2cc3c4c(c2)CCC(=O)N4CCC3)c1, the Potency is reported as inconclusive [inhibitor, single point].
In the case of COc1ccccc1C(=O)Nc1ccc2c(c1)nc(CN1CCCCC1)n2C, the Potency is reported as inconclusive [inhibitor, single point].
With COc1ccc(NC(=O)c2nc[nH]c2C(=O)N[C@@H](C)C(=O)OC(C)(C)C)cc1 the Potency was inconclusive [inhibitor, partial curve].
With Cc1cnc(CN(C)Cc2c(C(=O)N3CCCCCCC3)nc3ccc(Cl)cn23)[nH]1 the Potency was inconclusive [inhibitor, partial curve].
In the case of COCCSc1nnc(NC(=O)CSCc2ccccc2)s1, the Potency is reported as inconclusive [inhibitor, single point].
For COc1ccc(Nc2ncc3c(n2)CC(c2ccccc2)CC3=O)cc1 (centres undefined), the Potency was inconclusive [inhibitor, single point].
In the case of Cc1ccc(C(CNS(=O)(=O)c2ccc(C)cc2)N2CCN(C)CC2)cc1 (centres undefined), the Potency is reported as inconclusive [inhibitor, single point].
In the case of Cc1cc[n+](CC(=O)c2cccc([N+](=O)[O-])c2)c2ccccc12, the Potency is reported as inconclusive [inhibitor, single point].
For CC1CCN(Cc2nc3c(c(=O)n(C)c(=O)n3C)n2CCCc2ccccc2)CC1, the Potency was inconclusive [inhibitor, single point].
In the case of COc1ccccc1NC(=O)N1CCN(c2cc(-c3ccccc3)nc3ncnn23)CC1, the Potency is reported as inconclusive [inhibitor, partial curve].
With COc1ccc(/C=C/C(=O)c2ccc3c(c2)OCO3)c(OC)c1 the “activity change, negative = inhibition” value was inactive: 192%.
